According to ChEMBL document CHEMBL1157539, “Thousands of chemical starting points for antimalarial lead identification” (Nature, 2010):
Several values for one entry are separate records, joined by “and”; a condition that tells them apart may be missing. Equal entries are not always repeated. In all, about 13,000 compounds were measured (“IFI”: median about 4, highest 2% from about 17 on). The list shows a part of the results.

Experiment: GSK_TCMDC: Inhibition Frequency Index (IFI). The number of non-kinase HTS assays where a compound showed > 50 % inhibition, expressed as a percentage of the number of such assays in which the compound was tested (-0 is zero)
Format: functional
`CCCCCCNc1cc(C)nc(NC(=N)Nc2cccc(C(F)(F)F)c2)n1` showed an IFI of 7.25%. Molecule `O=C(Nc1ccc(-c2cccc(CN3CCC(O)CC3)c2)cc1)c1cccc(Cl)c1` has an IFI of 6.67%. `Cc1noc(C)c1C(=O)N1CCc2cc3nccc(N4CCN5CCC[C@H]5C4)c3cc21` gave an IFI of 1.49%. In the case of `CC(C)CCn1c(Sc2ccc([N+](=O)[O-])cc2C(F)(F)F)nnc1-c1ccccc1Cl`, the IFI was 3.52%. In the case of `Cc1cc(OCC2CCCO2)c2cc(NC(=O)C(=O)Nc3ccc4nc(C)cc(OCC5CCCO5)c4c3)ccc2n1` (stereo not given), the IFI was -0%. With `CC(C)CNc1c2c(nc3cnn(-c4c5c(nc6cn[nH]c46)CCCC5)c13)CCCC2` the IFI was -0%. `Cc1cc(NC(=O)Nc2cccc(C#N)c2)c2ccccc2n1` gave an IFI of 1.54%. In the case of `Cc1onc(-c2ccccc2)c1-c1nc(NC2CCCC(C)C2)no1` (stereo not given), the IFI was 3.08%. `Cc1nnc2c(NC(=O)NC3CCCC3)cc3cc(-c4ccc(CN5CCCCC5)cc4)ccc3n12` gave an IFI of 10%. Molecule `O=C(Nc1ccc(Cl)c(C(F)(F)F)c1)N[C@H]1CCN(CCCCCNC(=O)C2CC2c2ccc(Cl)c(Cl)c2)C1` (stereo not given in full) has an IFI of 12.2%. Molecule `CCOc1cc(C2C(C(=O)OC(C)C)=C(C)NC3=C2C(=O)CC(c2ccc(Cl)cc2)C3)ccc1OC(C)=O` (stereo not given) has an IFI of 4.76%. With `CCN(CC)CCN(Cc1ccc(-c2ccc(C(F)(F)F)cc2)cc1)C(=O)Cn1c(SCc2ccc(F)c(F)c2F)nc(=O)c2c1CCC2` the IFI was 11.4%. `CS(=O)(=O)N1CC2(CCN(CCC(NC(=S)Nc3ccccc3)c3ccc(Cl)c(Cl)c3)CC2)c2ccccc21` (stereo not given) showed an IFI of 4.14%. `COc1cc2nc(NCCn3cccn3)nc(NCCc3ccccc3)c2cc1OC` gave an IFI of 4.23%. Molecule `COC(=O)c1cccc(NC(=O)NC2CCN(c3ccnc(Nc4cc(OC)c(OC)c(OC)c4)n3)C2)c1` (stereo not given) has an IFI of 4.55%. With `COc1ccc(CNC2CCN(C)CC2)cc1-c1ccc(S(=O)(=O)NCCc2ccccn2)c(C)c1` the IFI was 2.97%. For `CN(C)CCOc1cc(NC(=O)Nc2ccc3c(c2)CCCC3=O)ccc1I`, the IFI was 1.43%. `OC(CNCc1cccc(Oc2ccc(Cl)cc2)c1)c1cc(C(F)(F)F)cc(C(F)(F)F)c1` (stereo not given) showed an IFI of 0.87%. `CN(C)c1ccc(-c2csc(C(=O)NCC3CCN(Cc4ccc(C(C)(C)C)cc4)C3)c2)cc1` (stereo not given) showed an IFI of 14.6%. `CCOC(=O)C1=C(C)NC2=C(C(=O)C(C(=O)OC)C(C)C2)C1c1cc(Br)c(OCC)c(OC)c1` (stereo not given) showed an IFI of 1.42%. In the case of `Cc1nc(N)nc(N)c1-c1cc(Cl)c(N)c(Cl)c1`, the IFI was 1.46%. With `C[C@H](CNc1ccnc(Nc2ccc3[nH]c(=O)[nH]c3c2)n1)c1ccccc1` the IFI was 0% and 3.45%. `Cc1nn(-c2ccc(Cl)cc2)c2[nH]c(CN3CCN(c4cccc(Cl)c4)CC3)cc(=O)c12` gave an IFI of 13%. In the case of `CC(C)c1ccc2[nH]c(C(=O)NC3CCC(N4CCCc5ccc(C#N)cc5C4)CC3)cc2c1` (stereo not given), the IFI was 11.5%. Work on `CC(=O)Nc1ccc(CNCCc2ccc(NC(=O)c3cc(Cl)cc(Cl)c3)cc2)cc1` yielded an IFI of 3.57%. Work on `CN1CCN(c2cc(-c3cccnc3)nc(-c3ccncc3)n2)CC1` yielded an IFI of 1.52%. `CCn1ccc2c(N3CCCC3=O)cc(C(=O)N[C@@H](Cc3ccccc3)[C@H](O)CNCc3cccc(OC)c3)cc21` showed an IFI of 2.08%. Work on `O=C(N[C@H]1CCN(Cc2ccc(OC3CCN(Cc4ccccc4)CC3)c(Br)c2)C1)c1ccc(Cl)c(Cl)c1` yielded an IFI of 10%. Work on `O=C(Nc1ccc(N2CCCN(Cc3cccc(F)c3)CC2)cc1)c1ccc(F)cc1` yielded an IFI of 8.82%. For `Oc1cc2c(cc1CN1CCN(Cc3ccccc3F)CC1)CCC2`, the IFI was 1.96%. `CCC(C)(C)c1ccc(OCCCC(=O)Nc2ccc(Cl)c([N+](=O)[O-])c2)c(C(C)(C)CC)c1` showed an IFI of 3.82%. With `O=C(CCc1c[nH]cn1)Nc1ccc(-c2cccc(-c3nc4ccccc4[nH]3)c2)cc1` the IFI was 0.88%. With `COc1cc(OC)c(NC(=O)Nc2ccnc3ccccc23)cc1Cl` the IFI was 0.72%. `CCOC(=O)c1ccc(NC(=O)Nc2ccc(-c3cccc(-c4nc5cccc(C)c5[nH]4)c3)cc2)cc1` gave an IFI of 7%. With `Cc1c(Cc2ccccc2)c(=O)oc2c(C)c3c(cc12)CN(CC(C)c1ccccc1)CO3` (stereo not given) the IFI was 5.17%. Molecule `CC(C)c1ccc(CN2CCC(CNC(=O)c3cc(-c4cccc(Cl)c4)cs3)C2)cc1` (stereo not given) has an IFI of 14%. `CCCCN(CCCC)/C(=N/c1cccc(Cl)c1Cl)Nc1ccc(C#N)cc1O` gave an IFI of 7.14%. Molecule `CN(C)CCN(C)Cc1cccc(-c2ccc3c(Nc4cc(O)c(Cl)cc4F)ccnc3c2)c1` has an IFI of 7.58%. For `CS(=O)(=O)Cc1ccc(Nc2ncc(Cl)c(Nc3cccnc3C(N)=O)n2)cc1`, the IFI was 8%. Work on `CC1Cc2ccccc2N1S(=O)(=O)c1cc(OCC(F)(F)F)ccc1OCC(F)(F)F` (stereo not given) yielded an IFI of 4.55%. `Cc1cc(CNCCCCCCCNCc2ccc(-c3ccccc3)cc2)ccc1O` gave an IFI of 6.62%. Work on `Cc1cccc(CNc2nc(C)cc(N[C@@H](CC(C)C)C(=O)NCc3cccc(F)c3)n2)c1` yielded an IFI of 9.52%. With `O=C(/C=C/c1ccc(Cl)c(Cl)c1)NCCCCCN1CCN(C(=O)Nc2ccc(OC(F)F)cc2)CC1` the IFI was 8.05%. `COc1ccc(CNCCc2cccs2)cc1-c1ccc(S(=O)(=O)NCCN2CCCC2)cc1` gave an IFI of 6.93%. For `FC(F)(F)COc1ccc(CCNCCCCNCCc2ccc(OCC(F)(F)F)c3ccccc23)c2ccccc12`, the IFI was 20.3%. Molecule `CN(C)CCn1c(N)c(-c2nc3ccccc3s2)c2nc(C#N)c(C#N)nc21` has an IFI of 3.92%. For `CCc1c[nH]c2c(N3CCCS3(=O)=O)cc(C(=O)N[C@@H](Cc3ccccc3)[C@H](O)CNC(C)(C)c3cccc(C(F)(F)F)c3)cc12`, the IFI was 4.38%. With `CSc1cccc(NC(=O)Nc2ccc(I)c(OCCN(C)C)c2)c1` the IFI was 3.79%. In the case of `CC(Sc1nc(-c2ccccc2)c(-c2ccccc2)o1)C(=O)NC1CC1` (stereo not given), the IFI was 3.28%. `CC(C)(C)c1ccc(-c2cc(C(=O)N[C@@H](CO)C(=O)O)on2)cc1.CC(C)(C)c1ccc(-c2nocc2C(=O)N[C@@H](CO)C(=O)O)cc1` gave an IFI of -0%. With `CCCCCCN(C(=O)OCc1ccccc1)C1CCN(C(=O)OC(C)(C)C)CC1C(=O)OCC` (stereo not given) the IFI was 2.99%. In the case of `CCCCCN1CCC(NC(=O)c2ccc(C(=O)Nc3ccc(C(C)C)cc3)cc2)C1` (stereo not given), the IFI was 10.9%. `CCOc1ccc(C(=O)Nc2cc(Br)c3c(c2)CNCC3)cc1Br` gave an IFI of 7.09%. In the case of `COC(=O)c1cccc(CNCc2ccc(-c3cccc(-c4nc5cccc(C)c5[nH]4)c3)cc2)c1`, the IFI was 5.71%. In the case of `CC1(C)N=C(N)N=C(N)N1O`, the IFI was -0%.
